The values below come from article PMC4336329 (PLoS ONE, 2015).

Among all 310,000 compounds or so, about 14,000 (4.5%) showed an effect of 50% or more. The effect is printed as a negative number. This is one part of the list.
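Note: peak tail current of the secondary pulse compared with the same well before compound.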

The target in the experiment is human ether-à-go-go-related gene (hERG) potassium channel (human, UniProt Q12809). The experiment is described as follows: primary screen, population patch clamp on CHO cells stably expressing hERG.
Sequence of human ether-à-go-go-related gene (hERG) potassium channel (Q12809 whole entry, looked up): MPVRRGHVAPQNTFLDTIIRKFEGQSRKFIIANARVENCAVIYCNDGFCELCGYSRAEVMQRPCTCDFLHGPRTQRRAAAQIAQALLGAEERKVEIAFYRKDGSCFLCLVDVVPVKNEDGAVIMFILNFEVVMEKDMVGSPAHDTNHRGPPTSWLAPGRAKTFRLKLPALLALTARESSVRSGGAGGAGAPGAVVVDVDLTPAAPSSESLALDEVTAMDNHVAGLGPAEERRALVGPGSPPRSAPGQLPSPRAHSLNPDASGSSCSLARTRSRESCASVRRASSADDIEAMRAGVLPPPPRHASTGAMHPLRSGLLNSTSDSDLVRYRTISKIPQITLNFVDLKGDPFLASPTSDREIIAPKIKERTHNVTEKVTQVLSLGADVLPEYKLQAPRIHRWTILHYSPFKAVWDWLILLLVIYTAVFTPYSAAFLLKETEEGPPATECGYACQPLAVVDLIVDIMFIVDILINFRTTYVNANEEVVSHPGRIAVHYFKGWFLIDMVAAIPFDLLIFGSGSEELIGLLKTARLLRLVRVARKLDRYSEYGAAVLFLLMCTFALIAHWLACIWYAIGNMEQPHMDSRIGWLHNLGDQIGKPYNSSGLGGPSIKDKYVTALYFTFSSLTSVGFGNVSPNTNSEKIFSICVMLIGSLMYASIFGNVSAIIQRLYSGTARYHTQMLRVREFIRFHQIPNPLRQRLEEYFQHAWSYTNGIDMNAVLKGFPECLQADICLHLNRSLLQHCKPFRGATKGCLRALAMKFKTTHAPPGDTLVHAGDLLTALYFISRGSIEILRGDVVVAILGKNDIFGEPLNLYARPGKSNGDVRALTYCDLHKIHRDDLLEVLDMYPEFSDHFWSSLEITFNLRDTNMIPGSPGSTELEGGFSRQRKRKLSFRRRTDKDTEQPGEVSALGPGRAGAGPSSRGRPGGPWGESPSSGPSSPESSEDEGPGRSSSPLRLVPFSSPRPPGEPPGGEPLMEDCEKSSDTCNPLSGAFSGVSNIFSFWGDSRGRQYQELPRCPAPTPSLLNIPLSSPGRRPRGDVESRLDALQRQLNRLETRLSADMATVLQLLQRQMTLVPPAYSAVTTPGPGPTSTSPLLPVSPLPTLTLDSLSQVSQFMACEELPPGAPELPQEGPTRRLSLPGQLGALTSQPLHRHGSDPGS
In the case of `O=C(Cn1cnc(S(=O)(=O)N2CCCC2)c1)Nc1cccc(Br)c1`, the “hERG current change (%, negative = inhibition) at 10uM” value is listed as 19.4%.

As for `COc1cccc(C(=O)Nc2cccc3ccccc23)c1OC`, the “hERG current change (%, negative = inhibition) at 10uM” value is -5.93%.

Regarding `CSc1nc2ccc(S(=O)(=O)Nc3c(C)n(C)n(-c4ccccc4)c3=O)cc2s1`, the “hERG current change (%, negative = inhibition) at 10uM” value is -12%.

On to `N#CCSc1nnc(COc2cccc3ccccc23)n1-c1cccc(Cl)c1`, for which the “hERG current change (%, negative = inhibition) at 10uM” value is given as 8.77%.

In the case of `CCc1nnc(NC(=O)CCS(=O)(=O)c2ccc(C)cc2)s1`, the “hERG current change (%, negative = inhibition) at 10uM” value was found to be 12.7%.

For `COCCCNc1nc2ccccc2nc1NS(=O)(=O)c1cccs1`, the “hERG current change (%, negative = inhibition) at 10uM” value is reported as 18.5%.

In the case of `Cc1cc(C(=O)N2CCCC(Nc3ccccc3)C2)c2ccc(F)cc2n1` (centres unmarked), the “hERG current change (%, negative = inhibition) at 10uM” value was 3.78%.

On to `COc1nc(Nc2ccc(-c3nc4ccccc4o3)cc2)nc(N2CCOCC2)n1`, for which the “hERG current change (%, negative = inhibition) at 10uM” value is on record as 11.8%.

In the case of `COc1ccc(-c2cc(C(=O)Nc3ccccc3SC)no2)cc1`, the “hERG current change (%, negative = inhibition) at 10uM” value came to 0.498%.

`O=[N+]([O-])c1ccc(N/N=C\c2cccnc2)nc1`: the “hERG current change (%, negative = inhibition) at 10uM” value worked out at 19.9%.

Take `Cc1ccc(-n2c(Cl)c(Cl)nc(Cl)c2=O)cc1`: the “hERG current change (%, negative = inhibition) at 10uM” value is -2.2%.

With `CC(=O)NS(=O)(=O)c1ccc(NS(=O)(=O)c2ccc(F)cc2)cc1`, the “hERG current change (%, negative = inhibition) at 10uM” value turned out to be 15.3%.

Regarding `CC(C)[C@]1(c2ccc(Cl)cc2)ON(c2ccccc2C(F)(F)F)C1=O`, the “hERG current change (%, negative = inhibition) at 10uM” value came out at 6.31%.

`Cc1cc(C)n2c(SCC(=O)N(C)C3CCCCC3)nnc2n1`: the “hERG current change (%, negative = inhibition) at 10uM” value amounted to 25.8%.

For the compound `COc1ccc(/C=N/Nc2ccc(C(=O)O)cc2)c(OC)c1OC`, the “hERG current change (%, negative = inhibition) at 10uM” value is reported as 23.5%.

As for `CCOC(=O)c1cccc(NC(=O)CN2C(=O)C3C4C=CC(C4)C3C2=O)c1` (centres unmarked), the “hERG current change (%, negative = inhibition) at 10uM” value is -13.7%.

`COc1ccccc1C(=O)NC(CCSC)C(=O)NNC(=O)c1ccccc1O` (centres unmarked): the “hERG current change (%, negative = inhibition) at 10uM” value was determined as 15.3%.

Turning to `O=C(O)c1sccc1SCc1ccc(Cl)cc1Cl`, the “hERG current change (%, negative = inhibition) at 10uM” value was found to be 13.1%.

With `COc1ccc(OCCCC(=O)Nc2cc(Cl)ccc2-n2cncn2)cc1`, the “hERG current change (%, negative = inhibition) at 10uM” value is -47.7%.

As for `CCOc1ccc2[nH]c(C(=O)N/N=C/c3ccc(OC)cc3)cc2c1`, the “hERG current change (%, negative = inhibition) at 10uM” value was 19.4%.

`CCc1c(C(=O)N/N=C/c2ccc(OCc3ccc(F)cc3)c(OC)c2)nnn1-c1nonc1N`: the “hERG current change (%, negative = inhibition) at 10uM” value came to 26.6%.

As for `CC(=O)C1=C(C)NC(=O)NC1c1cc(Br)ccc1OCC#N` (centres unmarked), the “hERG current change (%, negative = inhibition) at 10uM” value is 22.6%.

On to `CC(C)[C@H](NS(=O)(=O)c1cccc(C(F)(F)F)c1)C(=O)OCC(N)=O`, for which the “hERG current change (%, negative = inhibition) at 10uM” value was determined as 9.97%.

Regarding `COc1ccc(/C=C2\Oc3cc(OCC(=O)N4CC(O)C[C@H]4C(=O)O)ccc3C2=O)c(OC)c1OC` (some centres unmarked), the “hERG current change (%, negative = inhibition) at 10uM” value is 16%.

For `CSCCC(NS(=O)(=O)c1ccc(Cl)cc1)C(=O)OCC(=O)c1ccc(F)cc1` (centres unmarked), the “hERG current change (%, negative = inhibition) at 10uM” value is -16%.

`O=C(NC1CCCCC1)C(c1ccco1)N(Cc1cccs1)C(=O)Cn1nnc2ccccc21` (centres unmarked): the “hERG current change (%, negative = inhibition) at 10uM” value stood at 6.34%.

With `CC1=CC(C)(C)Nc2ccc(OC(=O)CN3C(=O)C4CCCCC4C3=O)cc21` (centres unmarked), the “hERG current change (%, negative = inhibition) at 10uM” value is recorded as -8.86%.

In the case of `CC(=O)OC(CC(=O)O)C[N+](C)(C)C.[Cl-]` (centres unmarked), the “hERG current change (%, negative = inhibition) at 10uM” value worked out at 8.67%.

`CC(NC(=O)CCCn1cc([N+](=O)[O-])cn1)c1ccccc1` (centres unmarked): the “hERG current change (%, negative = inhibition) at 10uM” value is given as -3.6%.

`Nc1c(-c2ccc3c(c2)OCCO3)oc2ccccc2c1=O`: the “hERG current change (%, negative = inhibition) at 10uM” value was 15.2%.

In the case of `COc1ccc2c(c1)C(C)CC(C)(C)N2C(=O)CSc1nc2ccccc2s1` (centres unmarked), the “hERG current change (%, negative = inhibition) at 10uM” value is 11.9%.

Turning to `CCOC(=O)c1cnc(SCCN2CCOCC2)nc1N`, the “hERG current change (%, negative = inhibition) at 10uM” value worked out at 9.59%.

On to `CCCCn1c(N)c(N(CC(C)C)C(=O)COC(=O)Cc2cccc(OC)c2)c(=O)[nH]c1=O`, for which the “hERG current change (%, negative = inhibition) at 10uM” value is on record as -11.7%.

With `CCn1c(SCC(=O)Nc2ccc3c(c2)c2ccccc2n3CC)nnc1-c1ccco1`, the “hERG current change (%, negative = inhibition) at 10uM” value was found to be 5.85%.

Consider `Cc1cccc(NS(=O)(=O)c2cccc3cccnc23)n1`, for which the “hERG current change (%, negative = inhibition) at 10uM” value was determined as 4.27%.

Consider `CC(C)c1ccc2c(c1)C(N1CCN(C)CC1)Cc1cccnc1S2.O=C(O)/C=C\C(=O)O` (centres unmarked), for which the “hERG current change (%, negative = inhibition) at 10uM” value is reported as -50.6%.

On to `CCOC(=O)c1oc2ccccc2c1NC(=O)COC`, for which the “hERG current change (%, negative = inhibition) at 10uM” value is given as -12.2%.

As to `CCOCCC(=O)Nc1cc(Cl)ccc1OC`, the “hERG current change (%, negative = inhibition) at 10uM” value is given as -6.1%.

`CC(C)Sc1nc2ccccc2[nH]1`: the “hERG current change (%, negative = inhibition) at 10uM” value worked out at 27.8%.

As for `CCOC(=O)c1c(C2COc3ccccc3O2)csc1NC(=O)c1ccco1` (centres unmarked), the “hERG current change (%, negative = inhibition) at 10uM” value is recorded as 13.2%.

As to `N#Cc1ccccc1NC(=O)c1ccc(-c2ccccc2Cl)o1`, the “hERG current change (%, negative = inhibition) at 10uM” value worked out at 14.7%.

In the case of `O=C(NCc1cccnc1)C(=O)NCC(c1ccco1)N1CCN(c2ccccc2F)CC1` (centres unmarked), the “hERG current change (%, negative = inhibition) at 10uM” value is on record as -4.89%.

As to `CC1(C)CC(=O)C2=C(C1)OC1=C(C(=O)CC(C)(C)C1)C2c1ccc(O)c([N+](=O)[O-])c1`, the “hERG current change (%, negative = inhibition) at 10uM” value is 14%.

Turning to `CC1CN(C(=O)c2cccc(S(=O)(=O)N3CCOCC3)c2)CC(C)O1` (centres unmarked), the “hERG current change (%, negative = inhibition) at 10uM” value was -12%.

Regarding `CCOc1ncccc1C(=O)Oc1ccc2c(c1)OCO2`, the “hERG current change (%, negative = inhibition) at 10uM” value is reported as -5.23%.

For `Cc1cccc(C2CC(c3ccc(Br)cc3)Nc3nc(N)nn32)c1` (centres unmarked), the “hERG current change (%, negative = inhibition) at 10uM” value is reported as -25.2%.

Take `O=C(CSc1ncnc2c1cnn2-c1ccc(F)cc1)NCc1ccc2c(c1)OCO2`: the “hERG current change (%, negative = inhibition) at 10uM” value is 21%.

On to `Cc1ccc(C)c(NC(=O)CCN2CCOCC2)c1`, for which the “hERG current change (%, negative = inhibition) at 10uM” value was 23%.

For the compound `Cc1ccc(C(=O)N/C(=C/c2ccco2)C(=O)N2CCC(C)CC2)cc1`, the “hERG current change (%, negative = inhibition) at 10uM” value is 24%.

For `O=C(Nc1ccc(S(=O)(=O)Nc2ncccn2)cc1)c1ccccc1Cl`, the “hERG current change (%, negative = inhibition) at 10uM” value is listed as -16.4%.

`Cc1ccc2cccc(OCc3ccc(F)cc3)c2n1`: the “hERG current change (%, negative = inhibition) at 10uM” value is recorded as -0.4%.

As for `NS(=O)(=O)c1ccc(CNC(=O)c2csc3c2CCCC3)cc1`, the “hERG current change (%, negative = inhibition) at 10uM” value is recorded as -4.61%.

On to `COc1ccc(NC(=O)Nc2c[nH]c(=O)[nH]c2=O)cc1OC`, for which the “hERG current change (%, negative = inhibition) at 10uM” value is on record as 13.3%.

Take `COc1ccc(CCNC(=O)C2CC(=O)N(c3ccc(F)cc3)C2)cc1OC` (centres unmarked): the “hERG current change (%, negative = inhibition) at 10uM” value turned out to be 5.42%.

In the case of `CC(C)CN1CCC(=O)N([C@H](COc2ccccc2)Cc2ccccc2)CC1`, the “hERG current change (%, negative = inhibition) at 10uM” value is on record as -71.7%.

With `Cn1nccc1C(=O)N1CCN(c2ccc(F)cc2)CC1`, the “hERG current change (%, negative = inhibition) at 10uM” value is -1.88%.
